Assay results from publication PMC9911399, “Two distinct binding modes provide the RNA-binding protein RbFox with extraordinary sequence specificity”.
Residue numbers refer to the chain shown, from its start. The list shows a part of the results.

T1: RBFOX1 RRM RbFoxmut (Fox-RRM*) (Homo sapiens, UniProt Q9NWB1 109-208, R118D;E147R;N151S;E152T)
T1 sequence: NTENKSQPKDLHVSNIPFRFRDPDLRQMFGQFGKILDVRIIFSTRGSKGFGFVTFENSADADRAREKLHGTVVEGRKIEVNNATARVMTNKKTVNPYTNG

B1: AGGGGAG (DNA:RNA)
RNA: GGGAGACCGGAAUUCAGAUUGUCCAGGGGAGUUAAAUCCCGUCGUAGCCACCA
DNA 1: CAATCTGAATTCCGGTCTCCC
DNA 2: TGGTGGCTACGACGGGATT
B2: UUGUCCC (DNA:RNA)
RNA: B1 RNA with A25U, G26U, G28U, G29C, A30C, G31C
DNA 1: CAATCTGAATTCCGGTCTCCC
DNA 2: TGGTGGCTACGACGGGATT
B3: AACUGAA (DNA:RNA)
RNA: B1 RNA with G26A, G27C, G28U, G31A
DNA 1: CAATCTGAATTCCGGTCTCCC
DNA 2: TGGTGGCTACGACGGGATT
B4: GGUUCUU (DNA:RNA)
RNA: B1 RNA with A25G, G27U, G28U, G29C, A30U, G31U
DNA 1: CAATCTGAATTCCGGTCTCCC
DNA 2: TGGTGGCTACGACGGGATT
B5: AGCACGG (DNA:RNA)
RNA: B1 RNA with G27C, G28A, G29C, A30G
DNA 1: CAATCTGAATTCCGGTCTCCC
DNA 2: TGGTGGCTACGACGGGATT
B6: UAUAAUA (DNA:RNA)
RNA: GGGAGACCGGAAUUCAGAUUGUCCUAUAAUAUUAAAUCCCGUCGUAGCCACCA
DNA 1: CAATCTGAATTCCGGTCTCCC
DNA 2: TGGTGGCTACGACGGGATT
B7: CGAACGG (DNA:RNA)
RNA: B1 RNA with A25C, G27A, G28A, G29C, A30G
DNA 1: CAATCTGAATTCCGGTCTCCC
DNA 2: TGGTGGCTACGACGGGATT
B8: UGUGCCA (DNA:RNA)
RNA: B6 RNA with A26G, A28G, A29C, U30C
DNA 1: CAATCTGAATTCCGGTCTCCC
DNA 2: TGGTGGCTACGACGGGATT
B9: GCUUCUG (DNA:RNA)
RNA: B6 RNA with U25G, A26C, A28U, A29C, A31G
DNA 1: CAATCTGAATTCCGGTCTCCC
DNA 2: TGGTGGCTACGACGGGATT
B10: UUCGGUG (DNA:RNA)
RNA: B1 RNA with A25U, G26U, G27C, A30U
DNA 1: CAATCTGAATTCCGGTCTCCC
DNA 2: TGGTGGCTACGACGGGATT
B11: GGGGGUC (DNA:RNA)
RNA: B1 RNA with A25G, A30U, G31C
DNA 1: CAATCTGAATTCCGGTCTCCC
DNA 2: TGGTGGCTACGACGGGATT
B12: CCACUGG (DNA:RNA)
RNA: B1 RNA with A25C, G26C, G27A, G28C, G29U, A30G
DNA 1: CAATCTGAATTCCGGTCTCCC
DNA 2: TGGTGGCTACGACGGGATT
B13: CAGACGU (DNA:RNA)
RNA: B6 RNA with U25C, U27G, A29C, U30G, A31U
DNA 1: CAATCTGAATTCCGGTCTCCC
DNA 2: TGGTGGCTACGACGGGATT
B14: AAACAAU (DNA:RNA)
RNA: B1 RNA with G26A, G27A, G28C, G29A, G31U
DNA 1: CAATCTGAATTCCGGTCTCCC
DNA 2: TGGTGGCTACGACGGGATT
B15: AGAUCCC (DNA:RNA)
RNA: B1 RNA with G27A, G28U, G29C, A30C, G31C
DNA 1: CAATCTGAATTCCGGTCTCCC
DNA 2: TGGTGGCTACGACGGGATT
B16: CUGAGCU (DNA:RNA)
RNA: B1 RNA with A25C, G26U, G28A, A30C, G31U
DNA 1: CAATCTGAATTCCGGTCTCCC
DNA 2: TGGTGGCTACGACGGGATT
B17: CAUUUAG (DNA:RNA)
RNA: B1 RNA with A25C, G26A, G27U, G28U, G29U
DNA 1: CAATCTGAATTCCGGTCTCCC
DNA 2: TGGTGGCTACGACGGGATT
B18: UAUCGGC (DNA:RNA)
RNA: B6 RNA with A28C, A29G, U30G, A31C
DNA 1: CAATCTGAATTCCGGTCTCCC
DNA 2: TGGTGGCTACGACGGGATT
B19: UCGCCGA (DNA:RNA)
RNA: B6 RNA with A26C, U27G, A28C, A29C, U30G
DNA 1: CAATCTGAATTCCGGTCTCCC
DNA 2: TGGTGGCTACGACGGGATT
B20: ACACCUU (DNA:RNA)
RNA: B1 RNA with G26C, G27A, G28C, G29C, A30U, G31U
DNA 1: CAATCTGAATTCCGGTCTCCC
DNA 2: TGGTGGCTACGACGGGATT
B21: GGCUACU (DNA:RNA)
RNA: B1 RNA with A25G, G27C, G28U, G29A, A30C, G31U
DNA 1: CAATCTGAATTCCGGTCTCCC
DNA 2: TGGTGGCTACGACGGGATT
B22: UAACGUU (DNA:RNA)
RNA: B6 RNA with U27A, A28C, A29G, A31U
DNA 1: CAATCTGAATTCCGGTCTCCC
DNA 2: TGGTGGCTACGACGGGATT
B23: GCCAAGA (DNA:RNA)
RNA: B6 RNA with U25G, A26C, U27C, U30G
DNA 1: CAATCTGAATTCCGGTCTCCC
DNA 2: TGGTGGCTACGACGGGATT
B24: GCUGGUA (DNA:RNA)
RNA: B6 RNA with U25G, A26C, A28G, A29G
DNA 1: CAATCTGAATTCCGGTCTCCC
DNA 2: TGGTGGCTACGACGGGATT
B25: GUACGCG (DNA:RNA)
RNA: B1 RNA with A25G, G26U, G27A, G28C, A30C
DNA 1: CAATCTGAATTCCGGTCTCCC
DNA 2: TGGTGGCTACGACGGGATT
B26: AUGAGAC (DNA:RNA)
RNA: B1 RNA with G26U, G28A, G31C
DNA 1: CAATCTGAATTCCGGTCTCCC
DNA 2: TGGTGGCTACGACGGGATT
B27: UAGUCUA (DNA:RNA)
RNA: B6 RNA with U27G, A28U, A29C
DNA 1: CAATCTGAATTCCGGTCTCCC
DNA 2: TGGTGGCTACGACGGGATT
B28: UACAGUC (DNA:RNA)
RNA: B6 RNA with U27C, A29G, A31C
DNA 1: CAATCTGAATTCCGGTCTCCC
DNA 2: TGGTGGCTACGACGGGATT
B29: AUACCGC (DNA:RNA)
RNA: B1 RNA with G26U, G27A, G28C, G29C, A30G, G31C
DNA 1: CAATCTGAATTCCGGTCTCCC
DNA 2: TGGTGGCTACGACGGGATT
B30: GCUAGGA (DNA:RNA)
RNA: B6 RNA with U25G, A26C, A29G, U30G
DNA 1: CAATCTGAATTCCGGTCTCCC
DNA 2: TGGTGGCTACGACGGGATT
B31: CAGUCGG (DNA:RNA)
RNA: B1 RNA with A25C, G26A, G28U, G29C, A30G
DNA 1: CAATCTGAATTCCGGTCTCCC
DNA 2: TGGTGGCTACGACGGGATT

target: T1, RBFOX1 RRM RbFoxmut (Fox-RRM*); experiment: EMSA; HiTS-Eq, 1 nM pool, 10 min; buffer printed only for the single-RNA assays: 10 mM Tris pH 7.5, 150 mM NaCl, 3.4 mM EDTA, 0.001% NP-40, 30 C; settings: tags: His6 N-terminal (pET28a); label: 5' 32P
Summary of the method: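 Purified RbFox RRM (wild type or mutant) was equilibrated for 10 min in 50 µL with 1 nM of a 5′-radiolabelled pool of RNA with 7 randomized nucleotides, its flanks annealed to DNA oligonucleotides, across increasing protein concentrations. Free RNA was separated by 8% native PAGE, excised, reverse-transcribed, PCR-barcoded and sequenced on an Illumina HiSeq 2500. Relative association constants came from read-count changes of each variant against the control reaction, normalised to the cognate motif.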

**Q.** How did the binding signal turn out when B1 was run?
**A.** 0.149 KA relative to UGCAUGU

**Q.** For B2, which binding signal is on record?
**A.** 0.0731 KA relative to UGCAUGU

**Q.** Which binding signal does the source give for B3 here?
**A.** 0.0595 KA relative to UGCAUGU

**Q.** Which binding signal does the source give for B4 here?
**A.** 0.0681 KA relative to UGCAUGU

**Q.** Which binding signal does the source give for B5 here?
**A.** 0.216 KA relative to UGCAUGU

**Q.** For B6, which binding signal is on record?
**A.** 0.0938 KA relative to UGCAUGU

**Q.** With B7 as the binder, how does the binding signal read?
**A.** 0.162 KA relative to UGCAUGU

**Q.** Which binding signal does the source give for B8 here?
**A.** 0.101 KA relative to UGCAUGU

**Q.** Which binding signal does the source give for B9 here?
**A.** 0.0878 KA relative to UGCAUGU

**Q.** How did the binding signal turn out when B10 was run?
**A.** 0.0922 KA relative to UGCAUGU

**Q.** Which binding signal does the source give for B11 here?
**A.** 0.201 KA relative to UGCAUGU

**Q.** Which binding signal does the source give for B12 here?
**A.** 0.0937 KA relative to UGCAUGU

**Q.** For B13, which binding signal is on record?
**A.** 0.0577 KA relative to UGCAUGU

**Q.** How did the binding signal turn out when B14 was run?
**A.** 0.045 KA relative to UGCAUGU

**Q.** B15 was tested. Which binding signal did it give?
**A.** 0.046 KA relative to UGCAUGU

**Q.** How did the binding signal turn out when B16 was run?
**A.** 0.0888 KA relative to UGCAUGU

**Q.** How did the binding signal turn out when B17 was run?
**A.** 0.152 KA relative to UGCAUGU

**Q.** For B18, which binding signal is on record?
**A.** 0.0946 KA relative to UGCAUGU

**Q.** Which binding signal does the source give for B19 here?
**A.** 0.0565 KA relative to UGCAUGU

**Q.** How did the binding signal turn out when B20 was run?
**A.** 0.0737 KA relative to UGCAUGU

**Q.** With B21 as the binder, how does the binding signal read?
**A.** 0.0816 KA relative to UGCAUGU

**Q.** With B22 as the binder, how does the binding signal read?
**A.** 0.064 KA relative to UGCAUGU

**Q.** For B23, which binding signal is on record?
**A.** 0.0658 KA relative to UGCAUGU

**Q.** For B24, which binding signal is on record?
**A.** 0.188 KA relative to UGCAUGU

**Q.** How did the binding signal turn out when B25 was run?
**A.** 0.138 KA relative to UGCAUGU

**Q.** Which binding signal does the source give for B26 here?
**A.** 0.0801 KA relative to UGCAUGU

**Q.** B27 was tested. Which binding signal did it give?
**A.** 0.0925 KA relative to UGCAUGU

**Q.** B28 was tested. Which binding signal did it give?
**A.** 0.0558 KA relative to UGCAUGU

**Q.** For B29, which binding signal is on record?
**A.** 0.107 KA relative to UGCAUGU

**Q.** With B30 as the binder, how does the binding signal read?
**A.** 0.0659 KA relative to UGCAUGU

**Q.** How did the binding signal turn out when B31 was run?
**A.** 0.0726 KA relative to UGCAUGU
